The record followed here is PubChem BioAssay (NCI).

The test relates to NCI-H322M lung. Put plainly: NCI tumour cell line growth inhibition, 48 h.

“And” between values parts separate entries of the source, which are not always exact repeats. Equal entries are not always repeated.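 Tested at 5 concentrations; 48 h exposure; 96-well plates; endpoints linearly interpolated, else capped at highest concentration. At the GI50, growth is halved. TGI: total growth inhibition.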

As to `C=C1CC/C=C(/C(=O)O)CC[C@H]2[C@@H]1CC2(C)C`, the TGI was greater than 100 µM.

Take `COc1cccc(NCC(=O)Nn2c(-c3ccccc3)nc3ccccc3c2=O)c1`: the TGI is greater than 100 µM.

In turn, `CCOC(OCC)C(CC)[Se]c1ccccc1[N+](=O)[O-]` (stereo unspecified) returned a TGI greater than 30.3 µM.

In turn, `O=C(O)CCC1COc2ccccc2O1` (stereo unspecified) displayed a TGI greater than 10 µM.

In the case of `CCCn1cnc2c(NN=O)ncnc21`, the TGI was greater than 100 µM.

Regarding `O=[N+]([O-])c1ccc(NC2OCC(O)C(O)C2O)cc1` (stereo unspecified), the TGI is greater than 100 µM.

Regarding `N#C/C(=C/C=C(\Cl)c1ccc(Cl)cc1)C(N)=O`, the GI50 was 2.52 µM and the TGI is 6.22 µM.

`N=c1c2c3n(c4c(=O)n(-c5ccccc5)c(=S)n(c(=O)n1-c1ccccc1)c24)CCCCC3`: the TGI was greater than 100 µM.

For the compound `O=[N+]([O-])c1ccc(/C=C/c2ccc(N=Nc3ccc(/C=C/c4ccc([N+](=O)[O-])cc4S(=O)(=O)O)c(S(=O)(=O)O)c3)cc2S(=O)(=O)O)c(S(=O)(=O)O)c1`, the TGI is greater than 100 µM.

`COC1(OC)N=C(N)C2(C#N)C(C)CC(=O)N(N(C)C)C12C#N` (stereo unspecified) gave a TGI greater than 100 µM.

For `Oc1ccc(-c2nc3cc(C(F)(F)F)ccc3n2CC2CCCN3CCCCC23)cc1` (stereo unspecified), the TGI came out at 27 µM.

`COc1ccc(C(=O)N2CCN(c3ccc4c(c3)OCC(=O)N4)CC2)cc1` gave a TGI greater than 100 µM.

As to `OCCSCCCSCCO`, the TGI is greater than 100 µM.

Take `COc1ncc(-c2nc3c(n2C(C)C)[C@H](c2ccc(Cl)cc2)N(c2cc(Cl)cn(C)c2=O)C3=O)c(OC)n1`: the GI50 is greater than 100 µM and the TGI was greater than 100 µM.

On to `O=S(=O)(O)CCS`, for which the TGI is greater than 100 µM.

`O=C1C=CC(=O)C1(Br)Br` returned a TGI of 29.8 µM.

With `COc1cc(/C=C/C(=O)c2cc(F)c(Cl)cc2Cl)cc(OC)c1OC`, the GI50 was 19.1 µM and the TGI was greater than 100 µM.

As to `Nc1nc2ccc([C@@H]3Nc4ccc5[nH]ncc5c4[C@H]4[C@H]5CCC(C5)[C@H]43)cc2s1`, the GI50 is 1.68 µM and the TGI came to 3.53 µM.

On to `O=C1c2cccnc2-c2nc(/C=C/c3ccccc3)cc3c2c1nc1ccccc13`, for which the GI50 was 2.15 µM and the TGI was determined as 5.41 µM.

In turn, `C=C(C)C1Cc2c(cc(O)c3c(=O)c4ccccc4n(C)c23)O1` (stereo unspecified) returned a TGI greater than 100 µM.

For `CCOC(=O)c1c(C)n(Cc2ccccc2)c2c1cc(O)c1[nH]c3c(c12)CCCC3`, the TGI is 32.8 µM.

As for `CN(C)CCNC(=O)c1cccc2cc3ccccc3nc12`, the GI50 was 2.93 µM and the TGI amounted to 17.5 µM.

With `O=C1c2ccccc2S(=O)(=O)N1CSC(=S)N1CCCC1`, the GI50 was greater than 100 µM and the TGI was greater than 100 µM.

Compound `COC(=O)C1OC(O[C@H]2CC[C@]3(C)[C@H]4CC=C5[C@@H]6CC(C)(C)CC[C@]6(C(=O)OC)[C@H](O)C[C@@]5(C)[C@]4(C)CC[C@H]3C2(C)C)C(O)C(O)C1O` (stereo partly specified) came in with a TGI of 19.1 µM.

`CC1C=C(OC(=O)c2ccccc2)C(=O)C(n2cc(F)c(=O)n(C(=O)c3ccccc3)c2=O)O1` (stereo unspecified): the TGI was greater than 100 µM.

The compound `COC(=O)c1ccc2n1C1CC3CC(CC2C3)C1` registered a TGI greater than 100 µM.

In the case of `N#C/C(=C\c1ccc(Br)cc1)n1nnc2cccc(F)c21`, the GI50 was 1.7 µM and the TGI came out at 3.29 µM.

Regarding `CN(C)C(=O)CC(C(=O)O)c1c[nH]c2ccccc12` (stereo unspecified), the TGI was greater than 100 µM.

Regarding `CC1=C/C(=N/N2C(=O)/C(=C/c3ccc(Cl)cc3)N=C2c2ccccc2)CC(C)(C)C1`, the TGI was greater than 100 µM.

In turn, `CCSc1nc2sc(C)c(C)c2c(=O)n1-c1ccc(C(=O)O)cc1` had a TGI greater than 100 µM.

As to `Nc1nc2c(c3ncccc13)C(c1cccc(Cl)c1)Cc1ncccc1-2` (stereo unspecified), the GI50 is 10.6 µM and the TGI is greater than 100 µM.

As for `Cn1c(N2CCCC2)c(C=O)c(=O)n(C)c1=O`, the TGI is greater than 100 µM.

In turn, `Cc1ccc(S(=O)(=O)N2CCSCCSCCN(S(=O)(=O)c3ccc(C)cc3)CCN(S(=O)(=O)c3ccc(C)cc3)CC2)cc1` displayed a TGI greater than 100 µM.

For `CC(=O)OCC1OC(OC2CC3C(C)(C)C(OC(C)=O)CC[C@]3(C)C3CCC45CC4(CC[C@H]5C(C)CC(O)C4OC4(C)C)[C@]23C)C(O)C(O)C1O` (stereo partly specified), the GI50 is 1.47 µM; the TGI was 1.83 µM and 3.03 µM.

Regarding `COc1cc(NN=C(c2ccc(O)cc2)c2ccc(O)cc2)c([N+](=O)[O-])cc1[N+](=O)[O-]`, the GI50 was 11.6 µM and the TGI worked out at 25.4 µM.

For the compound `CCCCCCCCCCCCCC/C(C(=O)OC)=C(/O)C(=O)OCC`, the TGI is greater than 100 µM.

As for `CC[N+](CC)=c1ccc2nc3c(cc(NCc4ccccc4)c4ccccc43)oc-2c1`, the GI50 was 0.215 µM and the TGI was 0.618 µM.

As to `Nc1ccn([C@H]2C[C@@H](O)[C@@H](CO)S2)c(=O)n1`, the GI50 is greater than 100 µM and the TGI was greater than 100 µM.

In turn, `CCOC(=O)CCC(C(=O)OCC)n1nc2ccc(Nc3c(C)[n+]([O-])c4cc(Cl)ccc4[n+]3[O-])cc2n1` (stereo unspecified) displayed a TGI greater than 100 µM.

`Oc1cc(Cl)cc2cc(Br)cnc12`: the TGI is greater than 100 µM.

`CCCCn1c2c(c3ccccc3c1=O)C(=O)c1ccccc1-2` gave a TGI greater than 100 µM.

In turn, `FC(F)(F)c1ccc2c(c1)nc(Cc1ccccc1)n2C[C@@H]1CCCN2CCCCC12` (stereo partly specified) yielded a TGI of 33.5 µM.

`CCc1cccc(C(C)C)c1NC(=O)C(=O)C(C(=O)C(=O)OC)c1nc2ccccc2[nH]c1=O` (stereo unspecified) yielded a TGI greater than 100 µM.

The compound `Cc1nc2c(nc1C)-c1c(c3c(n1Cc1ccccc1)C(=O)CCC3)C(=O)C2=O` gave a TGI of 35.9 µM.

Take `CCOC(=O)/C=C1\SC(=Nc2ccc(C#N)cc2)N(CCN2C(=O)/C(=C/C(=O)OCC)SC2=Nc2ccc(C#N)cc2)C1=O`: the GI50 is 6.4 µM and the TGI was found to be 19.8 µM.

For the compound `Cc1cc(S(=O)(=O)Nc2nc3ccsc3c(=O)n2Cc2ccco2)c(S)cc1Cl`, the GI50 is greater than 100 µM and the TGI is greater than 100 µM.

For the compound `Cc1cc(C)c2c(n1)S(=O)(=O)N(CCCN1CCN(c3cccc(C(F)(F)F)c3)CC1)/C(=C(\O)c1ccccc1)C2=O`, the TGI was greater than 100 µM.

`O=C1CC(Br)c2c(Cl)sc(Cl)c21` (stereo unspecified) gave a TGI of 28.9 µM.

In the case of `CC(=O)Oc1ccn2nc(C)c(Br)c2c1Br`, the TGI was greater than 100 µM.

Regarding `C/C=C(\C)C(=O)O[C@@H]1C(O)[C@H]2OC(COC(=O)CCC(=O)CCCCCC[C@H](CCCCC)O[C@@H]3OC(C)[C@H](OC(C)=O)C(O)[C@H]3O2)[C@H]1OC(=O)/C=C/c1ccccc1` (stereo partly specified), the GI50 was 0.282 µM and the TGI was greater than 51.8 µM.

`O=C(CCCCCCCCC(=O)NN1C(=O)/C(=C\c2ccc(O)c(O)c2)SC1c1c(O)ccc2ccccc12)NN1C(=O)C(=Cc2ccc(O)c(O)c2)SC1c1c(O)ccc2ccccc12` (stereo unspecified) returned a TGI of 96.8 µM.

With `O=C1/C(=C/c2ccccc2)SC(=Nc2ccccc2)N1Nc1ccccc1`, the GI50 was 19.2 µM and the TGI was greater than 100 µM.

With `CCOP(=O)(CC(=O)C1=C(O)C(CCCNC(=O)OC(C)(C)C)N(Cc2ccc(OC)c(OC)c2)C1=O)OCC` (stereo unspecified), the TGI was greater than 100 µM.

`O=C(Oc1ccc([N+](=O)[O-])cc1)N1CCN(Cc2cccc(Oc3ccccc3)c2)CC1`: the GI50 is greater than 100 µM and the TGI was greater than 100 µM.

As to `COc1ccc(C2NCCc3c2[nH]c2ccccc32)cc1CN1CCN(c2ccc(F)cc2)CC1` (stereo unspecified), the GI50 was 2.26 µM and the TGI came to 6.1 µM.

Regarding `COc1ccc(-c2cc(-c3ccc(Nc4ccnc5cc(C(F)(F)F)ccc45)cc3)[nH]c(=O)c2C#N)c2ccccc12`, the TGI is greater than 100 µM.

With `COc1cccc(/C=C/C(=O)c2ccc(Cl)cc2Cl)c1OC`, the GI50 was 14.3 µM and the TGI stood at 27.8 µM.

With `CC1=C(C(=O)Nc2ccccc2C)C(c2ccc([N+](=O)[O-])cc2)C(C(=O)Nc2ccccc2C)=C(C)N1`, the TGI is greater than 100 µM.

Regarding `C=C(C)CCC1CCCCC(CN(C)C)C1=O` (stereo unspecified), the TGI was greater than 100 µM.

For `COc1ccc(/C=C(/C(=O)N2CCCC2)c2cc(OC)c(OC)c(OC)c2)cc1N`, the GI50 was 5.98 µM and the TGI is greater than 100 µM.

`N#Cc1c(=O)c2cc([N+](=O)[O-])ccc2n2c1[nH]c1ccccc12`: the TGI was greater than 80.9 µM.

Turning to `COC(=O)c1c2c(c(C)[n+]([O-])c1C)C(=O)C=C(NCc1cccc(OC)c1)C2=O`, the GI50 was 0.549 µM and the TGI was 1.76 µM.

On to `N[C@@H]1c2c(Br)sc(Br)c2[C@H](O)[C@@H]1O`, for which the TGI is greater than 100 µM.

As to `COc1c2ccccc2c(O)c2c(=O)c(C(=O)O)cn(C)c12`, the GI50 was 72.9 µM and the TGI is greater than 100 µM.

`Cc1cccc(-c2cc(=O)c3ccc(C)nc3[nH]2)c1` registered a TGI greater than 100 µM.

`CCOc1ccccc1NC(=O)CCc1nnc2s/c(=C\CCc3ccccc3)c(=O)n12` yielded a TGI greater than 100 µM.

`COC(=O)NCCc1[nH]nc2c1C(=O)C=C(OC)C2=O` showed a TGI greater than 100 µM.

`COc1cc2cc(Oc3ccc(NC(=O)Nc4ccccc4)cc3)c(C)nc2cc1OCCN1CCCCC1`: the GI50 is 5.52 µM and the TGI is 10.1 µM.

As for `COc1cc(/C=C2\N=C(c3ccccc3)N(C3Nc4cc5c(cc4S3)NC(N3C(=O)/C(=C/c4cc(OC)c(OC)c(OC)c4)N=C3c3ccccc3)S5)C2=O)cc(OC)c1OC` (stereo unspecified), the TGI is greater than 100 µM.

Take `Cc1cc(O)c2c(c1)C(=O)c1cc(O)cc(O)c1C2=O`: the TGI is greater than 78.1 µM.

For the compound `COc1ccc(-c2cnc(-c3ccc(F)cc3)[nH]2)cc1`, the GI50 was 7.14 µM and the TGI is 21.8 µM.

For `O=S(=O)(NC(=S)Nc1ccccc1)c1ccc(N2N=C3c4ccccc4CC3C2c2cccs2)cc1` (stereo unspecified), the GI50 is 5.67 µM and the TGI was determined as 23.5 µM.

Compound `CN(C)CCNCc1c2ccccc2c(CNCCN(C)C)c2ccccc12` had a TGI of 53.5 µM.

Consider `CN(C)c1ccc(/C=C2\CNC/C(=C\c3ccc(N(C)C)cc3)C2=O)cc1`, for which the TGI stood at 80.4 µM.

For `O=C([O-])c1ccc2c(c1)-c1nc-2nc2[n-]c(nc3nc(nc4[n-]c(n1)c1ccc(C(=O)[O-])cc41)-c1cc(C(=O)[O-])ccc1-3)c1ccc(C(=O)[O-])cc21.[Fe+2]`, the GI50 was greater than 50 µM and the TGI is greater than 50 µM.

For `Cc1ccc(S(=O)(=O)Oc2ccc3c4c(c(=O)oc3c2)CCCCC4)cc1`, the GI50 is greater than 100 µM and the TGI is greater than 100 µM.

`CC12O[C@H](c3ccccc3)[C@H](c3ccccc3)N1C(=O)C1(C(=O)OCc3ccccc3)CC12` (stereo partly specified) gave a TGI greater than 100 µM.

The compound `Cc1cc(Cc2cc(C)c(NC(=O)C(=O)C3C(=O)NC(=S)NC3=O)c(C(C)C)c2)cc(C(C)C)c1NC(=O)C(=O)C1C(=O)NC(=S)NC1=O` gave a TGI greater than 100 µM.
